In PubChem BioAssay AID2675 (National Center for Advancing Translational Sciences (NCATS), 2010):
Hit rate of the full screen: of about 280,000 compounds, about 100 (0.036%) were called active. Inconclusive means that the source gave no clear call. Such entries were picked first, then a sample of the others. Calls come from the whole dose curve; as a rule, active = well fitted inhibition curve with a large enough effect in the signal ratio, with a control signal flat (not every such curve was filed as active); inconclusive = small, poorly fitted or top-dose-only effect, or effect the other way, or a change in a side signal; inactive = no such curve, though single readings can be large or run the other way; the % refers to the signal ratio. Potencies beside an inconclusive call are fits to weak or partial responses and may not hold up. “Side channel” marks fits to a control or component signal instead of the main read-out.

target: Muscleblind-like protein 1 (Homo sapiens) (UniProt Q9NR56); test: qHTS Assay for Inhibitors of MBNL1-poly(CUG) RNA binding; conditions: TR-FRET MBNL1-His/biotin-(CUG)12 binding, 665/545 ratio; series mostly up to 57.5 µM
How it was run: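 MBNL1-His + Biotin-(CUG)12, cpd titration 92 nM–58 uM; Tb anti-His Ab 0.055 ng/ul, SA-XL665 5 nM (final); 60 min RT; ratiometric 665/545 nm, Ex 340 nm; normalized to buffer and full-complex controls.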
Potency is the fitted concentration of half-maximal effect; tags give direction and shape of the fitted curve or compound fluorescence and quenching.

Sequence of UniProt Q9NR56 (Q9NR56 whole entry, looked up): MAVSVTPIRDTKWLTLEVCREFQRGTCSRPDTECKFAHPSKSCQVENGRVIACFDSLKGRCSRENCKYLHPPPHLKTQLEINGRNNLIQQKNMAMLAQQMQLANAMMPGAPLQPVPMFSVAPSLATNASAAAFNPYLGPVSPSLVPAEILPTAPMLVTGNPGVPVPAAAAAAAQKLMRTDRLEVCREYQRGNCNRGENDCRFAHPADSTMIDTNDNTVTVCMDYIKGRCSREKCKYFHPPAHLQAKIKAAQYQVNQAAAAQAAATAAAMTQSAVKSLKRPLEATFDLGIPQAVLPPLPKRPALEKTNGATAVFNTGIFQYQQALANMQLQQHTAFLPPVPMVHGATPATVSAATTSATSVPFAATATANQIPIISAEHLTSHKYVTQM

Row | Structure (SMILES) | Potency
1 | Nc1nc(SCC(=O)Nc2ccc(Cl)cn2)n[nH]1 | inactive
2 | COCCNC(=O)C1CCCN(S(=O)(=O)c2cccc3nsnc23)C1 (centres undefined) | inconclusive: 8.91 µM [quencher, side channel, partial curve]
3 | CC1CCN(c2cc(N(C)CCO)c([N+](=O)[O-])c3nonc23)CC1 | inconclusive: 14.1 µM [quencher, side channel, partial curve]
4 | CN1CCN(NC(=O)/C=C/c2cccc([N+](=O)[O-])c2)CC1 | inconclusive: 14.1 µM [quencher, side channel, partial curve]
5 | Cc1ccccc1C(=O)N=c1ccn(-c2nc3ccccc3nc2NS(=O)(=O)c2ccccc2)cc1 | inconclusive: 14.1 µM [quencher, side channel, partial curve]
6 | CCN1CCN(CC(=O)N2N=C(c3cccs3)CC2c2ccc(OC)cc2)C(=O)C1=O (centres undefined) | inconclusive: 28.2 µM [quencher, side channel, single point]
7 | COc1cc(NC(=O)Nc2cccc([N+](=O)[O-])c2)cc(OC)c1 | inconclusive: 10 µM [quencher, side channel, partial curve]
8 | Cc1cc(C)nc(/N=C2\NC(=O)CC(C(=O)O)N2c2ccc(C)c(C)c2)n1 (centres undefined) | inactive
9 | O=C(Oc1ccccc1)N(c1ccccc1)c1ccccc1 | inactive
10 | CCCNC(=O)c1ccc(-c2nc3ccccc3s2)s1 | inconclusive: 7.08 µM [quencher, side channel, partial curve]
11 | CN(C)CCCNC(=O)c1cc2sc3ccccc3c2s1 | inconclusive: 25.1 µM [quencher, side channel, partial curve]
12 | NC(=O)c1ccccc1NC(=O)CN1CCN(Cc2ccccc2)CC1 | inactive
13 | Cc1cc(C)n2cc(CSCc3ccco3)nc2n1 | inconclusive: 39.8 µM [quencher, side channel, single point]
14 | Cc1ccccc1C(=O)N1CCC(n2nccc2NC(=O)CCOc2ccccc2)CC1 | inactive
15 | COc1nc(C)ccc1-c1noc(-c2ccco2)n1 | inactive
16 | CCN(CC(=O)Nc1ccc2c(c1)CCC2)Cc1nc2ccccc2c(=O)[nH]1 | inconclusive: 39.8 µM [quencher, side channel, single point]
17 | Cc1cccc(C)c1OCc1cc(C(=O)NC2CCC2)no1 | inactive
18 | CCCOc1ccc(Cl)cc1/C=C1/C(=O)ON=C1C | inconclusive: 39.8 µM [quencher, side channel, single point]
19 | COc1ccc2[nH]c(C)c(CCNC(=S)Nc3cc(C)cc(C)c3)c2c1 | inactive
20 | CC1(C)CC(=O)C2=C(C1)N(Cc1ccccc1)C(=O)C2(NC(=O)C(C)(C)C)C(F)(F)F (centres undefined) | inactive
21 | CN1CCN(CC(=O)Nc2nnc(-c3cccs3)s2)CC1 | inconclusive: 39.8 µM [quencher, side channel, single point]
22 | CCc1ccc(C(=O)NCc2ccc(Cl)cc2)cc1 | inconclusive: 0.112 µM [fluorescent, side channel, full curve]

Row | Structure (SMILES) | Potency
23 | COc1ccc(/C=N/NC(=O)CNC(=O)/C=C/c2ccco2)cc1OC | inconclusive: 25.1 µM [quencher, side channel, partial curve]
24 | CN(C)C=Nc1ccc2nc3c(cc2c1)[nH]c1ccccc13 | inconclusive: 8.91 µM [quencher, side channel, partial curve]
25 | O=[N+]([O-])c1ccc(C2CC(c3ccccc3)=Nc3ccccc3S2)cc1 (centres undefined) | inactive
26 | O=[n+]1cc(-c2ccc(Br)cc2)n([O-])c2c1CCC2 | inconclusive: 14.1 µM [quencher, side channel, partial curve]
27 | COc1ccc2c(=O)c(-c3ccccc3)coc2c1 | inactive
28 | COc1cccc(-c2cc(C(F)(F)F)n3ncc(C(=O)O)c3n2)c1 | inconclusive: 14.1 µM [quencher, side channel, partial curve]
29 | COc1ccc(NC(=O)Nc2c(SC)nsc2SC)cc1 | inactive
30 | Fc1cc(F)c2nc(Nc3nc4cc5c(cc4s3)OCO5)sc2c1 | inactive
31 | COc1ccccc1NC(=O)CSCc1nc2ccccc2[nH]1 | inconclusive: 1.26 µM [fluorescent, side channel, partial curve]
32 | Cc1cccc(N2CCN(C(=O)CNC(=O)c3cccc([N+](=O)[O-])c3)CC2)c1C | inconclusive: 14.1 µM [quencher, side channel, partial curve]
33 | COc1ccc(N(C(=O)c2snc(C(N)=O)c2N)C(C(=O)NCC2CCCO2)c2ccc(C)o2)cc1OC (centres undefined) | inconclusive: 22.4 µM [quencher, side channel, single point]
34 | CN(C)S(=O)(=O)c1ccc(-c2csc(-c3cccnc3)n2)cc1 | inconclusive: 28.2 µM [quencher, side channel, single point]
35 | CN1CCN(c2ccc(NC(=O)COc3ccccc3[N+](=O)[O-])cc2)CC1 | inconclusive: 12.6 µM [quencher, partial curve]
36 | CCc1cc2c3c(c1)C1(C(=O)N3C(C)(C)CC2C)C(C#N)=C(N)N2C(=C1C#N)Nc1ccccc12 (centres undefined) | inconclusive: 0.0794 µM [fluorescent, side channel, partial curve]
37 | CCOc1cccc(/C=N/NC(=O)c2ccc3c(c2)OCCO3)c1O | inconclusive: 31.6 µM [quencher, side channel, single point]
38 | COC(=O)C1=C(C)C(c2ccc(OC)cc2)NC(=S)N1 (centres undefined) | inactive
39 | NS(=O)(=O)c1cccc(NC(=S)NC(=O)c2cccc([N+](=O)[O-])c2)c1 | inconclusive: 12.6 µM [quencher, side channel, partial curve]
40 | CC(C)N(Cc1cn[nH]c1-c1ccc(-c2ccccc2)cc1)Cc1nccn1C | inactive
41 | CCOC(=O)CC(NC(=O)c1cc2cccc(OC)c2oc1=O)c1cccc([N+](=O)[O-])c1 (centres undefined) | inconclusive: 0.126 µM [quencher, side channel, full curve, poor fit]
42 | COc1cc2c(=O)n(Cc3ccccc3)c(=O)n(CC(=O)NCC3CCCO3)c2cc1OC (centres undefined) | inactive
43 | CCCN1C(=O)c2ccc(C(=O)Nc3cc(C)on3)cc2C1=O | inconclusive: 3.55 µM [quencher, side channel, full curve, poor fit]
44 | CC(C)CCNC(=O)C12CN(Cc3ccccc3)CC1C(c1cccc([N+](=O)[O-])c1)=NO2 (centres undefined) | inconclusive: 28.2 µM [quencher, side channel, partial curve]

Row | Structure (SMILES) | Potency
45 | C/C(CC(C)C)=N\NC(=O)Nc1ccccc1 | inconclusive: 0.1 µM [fluorescent, side channel, full curve]
46 | COc1cc(CN2CCc3ccccc3C2)cc([N+](=O)[O-])c1O | inconclusive: 20 µM [quencher, side channel, partial curve]
47 | COc1ccc(/C=C/C(=O)Nc2cc(C)on2)cc1 | inactive
48 | Cc1nn2c(N3CCN(C)CC3)c3c(nc2c1-c1ccccc1)CCCC3 | inactive
49 | COC(=O)N=Nc1c(O)[nH]c2ccc(Br)cc12 | inconclusive: 8.91 µM [quencher, side channel, partial curve]
50 | CC1=C([N+](=O)[O-])C(c2ccccc2Cl)NC(=O)N1 (centres undefined) | inconclusive: 31.6 µM [quencher, side channel, partial curve]
51 | O=C1c2ccc3c4c(ccc(c24)C(=O)N1c1cccc(O)c1)C(=O)N(c1cccc(O)c1)C3=O | inconclusive: 1 µM [quencher, side channel, full curve]
52 | COc1cc(NC(=O)C2=CC(c3ccc(C)cc3)=NS(=O)(=O)N2C)cc(OC)c1OC | inconclusive: 25.1 µM [quencher, side channel, partial curve]
53 | CCOCCCn1c(=S)[nH]c2cc(C(=O)NCCc3ccccc3)ccc2c1=O | inconclusive: 35.5 µM [fluorescent, partial curve]
54 | NCCCC[C@@H]1NC(=O)[C@H](CCC(=O)O)NC(=O)c2cc([N+](=O)[O-])cc(I)c2NCC[C@@H](C(N)=O)NC1=O | inconclusive: 17.8 µM [quencher, side channel, single point]
55 | C/C(=N\Nc1ccc(S(N)(=O)=O)cc1[N+](=O)[O-])c1ccc2c(c1)OCO2 | inconclusive: 3.16 µM [quencher, side channel, full curve]
56 | C[n+]1ccc(/C=C/c2c[nH]c3ccccc23)cc1 | inconclusive: 17.8 µM [quencher, side channel, partial curve]
57 | Cc1cc(C)nc(/N=C(\N)Nc2cc([N+](=O)[O-])ccc2C)n1 | inconclusive: 39.8 µM [quencher, side channel, single point]
58 | Cc1cccc(C(=O)Nc2ccc(C(=O)/C=C/c3ccncc3)cc2)c1 | inactive
59 | Cc1ccc(C(=O)NNC(=O)C2CCN(S(=O)(=O)c3ccc(C)cc3)CC2)cc1 | inactive
60 | Cc1cccc(C)c1NC(=O)C1CCCN1S(=O)(=O)c1ccccc1 (centres undefined) | inactive
61 | CN1/C(=C/c2cccc[n+]2CCO)Sc2ccccc21 | inconclusive: 28.2 µM [quencher, side channel, single point]
62 | N#CC(C#N)=C1C=C2C=C(N3CCCCCC3)CCC2CC1 (centres undefined) | inconclusive: 5.01 µM [quencher, side channel, partial curve]
63 | O=C(NCCCN1CCN(c2cccc(Cl)c2)CC1)c1nc(-c2ccncc2)no1 | inactive
64 | Cc1ccc(OCC(=O)Nc2ccc(S(=O)(=O)N3CCOCC3)cc2)c([N+](=O)[O-])n1 | inconclusive: 11.2 µM [quencher, side channel, partial curve]
